This note sets out measurements from article PMC7819943, “Rice protein-binding microarrays: a tool to detect cis-acting elements near promoter regions in rice”.

Some of the results follow.

This test has as its target T1, OsWOX13 (Oryza sativa, UniProt Q5QMM3 1-267).
T1 sequence: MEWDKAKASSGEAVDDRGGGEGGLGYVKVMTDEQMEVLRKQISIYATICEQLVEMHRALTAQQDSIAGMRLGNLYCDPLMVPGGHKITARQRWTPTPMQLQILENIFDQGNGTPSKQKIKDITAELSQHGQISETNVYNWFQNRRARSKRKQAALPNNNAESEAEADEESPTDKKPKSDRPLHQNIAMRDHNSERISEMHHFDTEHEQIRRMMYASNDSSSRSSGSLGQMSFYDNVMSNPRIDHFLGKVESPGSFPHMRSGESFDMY
The test is described as follows: protein-binding microarray (RPBM); PBS, 2% BSA, 51.3 ng/ul salmon testes DNA, 50 uM zinc acetate, 200 nM TF, 25 C, 1 h; high values mean tight binding. Particulars: protein: recombinant; tags: N-terminal polyhistidine and DsRed monomer fusion (pET32a); label: CyDye5-dUTP incorporated in the synthesized complementary strand; 3' TTTTT single-stranded linker to array surface; dsDNA, one strand shown. Put shortly: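 Polyhistidine-tagged DsRed fusions of transcription factors, joined at the N-terminus, were expressed in E. coli BL21-CodonPlus and isolated on Ni–NTA. They were incubated at 200 nM for 1 h at 25 °C on a custom Agilent array, double-stranded and BSA-blocked, in PBS with 2% BSA, salmon testes DNA and 50 µM zinc acetate. The binding signal is per-feature fluorescence intensity (arbitrary units) read on an Axon 4000B scanner after washing.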
For the sequence “ATAGTGTACTAATCAATTGGGTCATGGGTTTCACTTAACCCGGAGTCACCTAGTGCAG”, the binding signal was 3680 fluorescence intensity (a.u.).
Regarding “ACATGATACGGCCCAAATGATTAAAGTTCTCCGAAACGAGCGGAGTCACCTAGTGCAG”, the binding signal is 3350 fluorescence intensity (a.u.).
“CCAACTGACATTGATATCCATTTCGAGAAACTGTGGAAAGCGGAGTCACCTAGTGCAG”: the binding signal is 3950 fluorescence intensity (a.u.).
Consider “ACAACACCTTAATTACCATTCCAACACTTTAATGATGCTACGGAGTCACCTAGTGCAG”, for which the binding signal was 10400 fluorescence intensity (a.u.).
Turning to “GGATCTGATTAAATTATTGTCTTTACATCCATTTAATTTTCGGAGTCACCTAGTGCAG”, the binding signal is 19300 fluorescence intensity (a.u.).
As for “CGTAGATTTGACCGAACAAATTGTACAGTAATGTACTAGGCGGAGTCACCTAGTGCAG”, the figure is 20100 fluorescence intensity (a.u.); as for “GTACCGACAAATTTGATTTCTGCAACTTCCGCATCTTTTCCGGAGTCACCTAGTGCAG”, 6410 fluorescence intensity (a.u.).
Consider “AATTTAATTAATGACAAATATAATTAGCTCTCTATCCAGGCGGAGTCACCTAGTGCAG”, for which the binding signal was 55500 fluorescence intensity (a.u.).
As for “CTAGAACAAATTGCAAATTCCACCTGTAAACTGCGAGACGCGGAGTCACCTAGTGCAG”, the figure is 13700 fluorescence intensity (a.u.); as for “ATGCCTGATTGGAAATCTACTATTACTATTCATGATACCGCGGAGTCACCTAGTGCAG”, 58500 fluorescence intensity (a.u.); as for “ATTCAAATAATTTATATATAGAATATTTCTATACATAAAGCGGAGTCACCTAGTGCAG”, 3250 fluorescence intensity (a.u.).
Take “ATATTTAATGCTAGATTGAATGAAAATTTTATTGTTTTCACGGAGTCACCTAGTGCAG”: the binding signal is 3980 fluorescence intensity (a.u.).
On to “AAAATAATTAATACTTAATTAATCATGTGTTATTGGCTTACGGAGTCACCTAGTGCAG”, for which the binding signal was 40800 fluorescence intensity (a.u.).
As for “GCCTAATGATTCCATCCGATCTGAGTGTGTTGCCTGTAGACGGAGTCACCTAGTGCAG”, the figure is 5050 fluorescence intensity (a.u.); as for “CTGATAATTGGGCCGGGGCCGGTGATCGGTTTTGCAGACACGGAGTCACCTAGTGCAG”, 18400 fluorescence intensity (a.u.); as for “TCTTAAATTATGATTTATATTTGAGTGGTTCTAGAAAGTCCGGAGTCACCTAGTGCAG”, 40100 fluorescence intensity (a.u.).
Take “AAGGGAAATGATTTACCATCCCTCTTTAAATCTTAACCATCGGAGTCACCTAGTGCAG”: the binding signal is 3860 fluorescence intensity (a.u.).
Regarding “TAAACCAATTACAATGATTATTTTCAACCGACCACCGATTCGGAGTCACCTAGTGCAG”, the binding signal is 23300 fluorescence intensity (a.u.).
With “AGAGATATGATTTAGTTAAGATGAAATTCATGAGCTGCAGCGGAGTCACCTAGTGCAG”, the binding signal was 3370 fluorescence intensity (a.u.).
The result for “TTATAGAACAAGATTGGAATCTAAACAGAACCTTTGTTTACGGAGTCACCTAGTGCAG” reads 3500 fluorescence intensity (a.u.); that for “ATGTAATTATAATTTATTTTGTTATAAGTTGTTTTATCACCGGAGTCACCTAGTGCAG”, 39900 fluorescence intensity (a.u.).
In the case of “TGACTTAAATTACATAGCATGATATATATTTATAGAGGATCGGAGTCACCTAGTGCAG”, the binding signal is 8420 fluorescence intensity (a.u.).
The result for “TCTAATTTATCTATAGCCAATCTAATAGCTCATTCATACACGGAGTCACCTAGTGCAG” reads 15500 fluorescence intensity (a.u.); that for “AAGAAATTTGGTTATTGGGCTGTCAAAATTATGATAAGGTCGGAGTCACCTAGTGCAG”, 4990 fluorescence intensity (a.u.); that for “CTTTGTAGTGATTGGGCATTTGGGCACCAGCGTTCCTTGCCGGAGTCACCTAGTGCAG”, 28200 fluorescence intensity (a.u.).
Consider “GCTTGACGACACCATTCGGATTGTTCCATCACTTCCATACCGGAGTCACCTAGTGCAG”, for which the binding signal is 3540 fluorescence intensity (a.u.).
For the sequence “TCTAGTCTCCGTCAATCTAATAGCGGAAGCTCGATCAGGTCGGAGTCACCTAGTGCAG”, the binding signal was 4120 fluorescence intensity (a.u.).
Regarding “CCACCAAATTAAAGCTGTCACAATTTACATAAATTCTTATCGGAGTCACCTAGTGCAG”, the binding signal is 5970 fluorescence intensity (a.u.).
The result for “CTAATTAACACACGCACCAACTAAGATATTTCTAACTCTACGGAGTCACCTAGTGCAG” reads 6260 fluorescence intensity (a.u.); that for “CCTACATCAACTAATTTGATTCCTTGAGTTTACGTTTAGTCGGAGTCACCTAGTGCAG”, 4890 fluorescence intensity (a.u.); that for “ATTCTAACCAATTAGTACATTTACTGTTTCCAACACTGTTCGGAGTCACCTAGTGCAG”, 11600 fluorescence intensity (a.u.).
Regarding “CGTCGGCGTCAATCAAGTAGCCAAGGACGGGGCACCCGAGCGGAGTCACCTAGTGCAG”, the binding signal was 16800 fluorescence intensity (a.u.).
Turning to “CACAATTGATCACTAGTGCCATCTATGCTCTTTTAACCCTCGGAGTCACCTAGTGCAG”, the binding signal is 16000 fluorescence intensity (a.u.).
In the case of “GCATCGTGGGGTGTGGGTGGCGGTTTTGGAGGGGAGAGGTCGGAGTCACCTAGTGCAG”, the binding signal is 5840 fluorescence intensity (a.u.).
As for “TTAACTTGATTAATATTGTAGGCTTATGGAGTTTGATCTCCGGAGTCACCTAGTGCAG”, the binding signal is 19400 fluorescence intensity (a.u.).
For the sequence “GGTGAATTCCAATTTACAAAATGATCTTGCAACAGTACAACGGAGTCACCTAGTGCAG”, the binding signal was 4600 fluorescence intensity (a.u.).
Take “TCCTTTCTGAATGACAATCAGTTGGAGTTGGAGTTGGAGTCGGAGTCACCTAGTGCAG”: the binding signal was 9500 fluorescence intensity (a.u.).
As for “TTTGGTAAATTAAATCTCGCTGACAAAACCGATGACCTCTCGGAGTCACCTAGTGCAG”, the figure is 12300 fluorescence intensity (a.u.).
“ATGCCAATCACTCATTTGCGTTGAAATGATATTTCCATGCCGGAGTCACCTAGTGCAG”: the binding signal is 22400 fluorescence intensity (a.u.).
As for “TAGGGATTAATAAATCAAATCAAATCAAATCAAAGCTGTGCGGAGTCACCTAGTGCAG”, the figure is 13500 fluorescence intensity (a.u.); as for “CGATCTCAATCACGTTGCGCCGCGTGCTCCGTTTCTGCCTCGGAGTCACCTAGTGCAG”, 20100 fluorescence intensity (a.u.).
The result for “TAGATTGGATCAAATGTCTCGAACCAACCAGTCCTCTCTCCGGAGTCACCTAGTGCAG” reads 16000 fluorescence intensity (a.u.).
